PubChem BioAssay (Tox21)
“And” between values parts separate entries of the source, which are not always exact repeats. Equal values may be shown once. The shares of active, inactive and inconclusive entries below differ from those in the screen. Potencies beside an inconclusive call are fits to weak or partial responses and may not hold up. The source made the active and inactive calls. Unless noted, calls come from the whole dose curve; as a rule, active = well fitted curve in the direction sought with a large enough effect in the repeat runs; inconclusive = weak or mixed curves; inactive = no such curve, though single readings can be large; an effect the other way counts as inactive or inconclusive.

What was measured:
[1] = A CellTox Green Cytotoxicity Assay to monitor cytotoxicity in HepG2 cells - 16 hour (AID 1224876); note: nearly all actives have a fitted effect of over 45% in size
Method in brief: (§1)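 Fluorescent DNA-binding dye, 600 HepG2 cells/well, 5 h preincubation then compound in DMSO; same plates read at 0–40 h, 37 C.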

[2] = A CellTox Green Cytotoxicity Assay to monitor cytotoxicity in HepG2 cells - 24 hour (AID 1224878); note: nearly all actives have a fitted effect of over 45% in size
Method in brief: as §1

[3] = A CellTox Green Cytotoxicity Assay to monitor cytotoxicity in HepG2 cells - 40 hour (AID 1224879); note: nearly all actives have a fitted effect of over 40% in size
Method in brief: as §1

[4] = A CellTox Green Cytotoxicity Assay to monitor cytotoxicity in HEK293 cells - 32 hour (AID 1224881); note: nearly all actives have a fitted effect of over 40% in size
Method in brief: (§2)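 Homogeneous no-lysis format: HEK293 cell suspension mixed with CellTox Green reagent, seeded, incubated 5 h at 37 C/5% CO2, then dosed by pintool with compound in DMSO.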

[5] = A CellTox Green Cytotoxicity Assay to monitor cytotoxicity in HepG2 cells - 32 hour (AID 1224883); note: nearly all actives have a fitted effect of over 50% in size
Method in brief: as §1

[6] = A CellTox Green Cytotoxicity Assay to monitor cytotoxicity in HEK293 cells - 8 hour (AID 1224884); note: nearly all actives have a fitted effect of over 35% in size
Method in brief: as §2

[7] = qHTS RealTime-Glo MT Cell Viability Assay in HepG2 cells - 16 hour (AID 1224885); note: nearly all actives have a fitted effect of over 50% in size
Method in brief: (§3)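 Tox21 10K library screened in qHTS format on HepG2 cells carrying RealTime-Glo reagents. Compounds were added after a 5 h preincubation, and the luminescent signal from continuous culture was measured repeatedly during 40 h treatment.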

[8] = qHTS RealTime-Glo MT Cell Viability Assay in HEK293 cells - 8 hour (AID 1224887); note: nearly all actives have a fitted effect of over 50% in size
Method in brief: (§4)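 Measured as luminescence from the same continuously cultured HEK293 wells at successive time points (0, 8, 16, 24, 32, 40 h) after compound addition. Reagent present from seeding; dosing at 5 h; incubation 37 C.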

[9] = A CellTox Green Cytotoxicity Assay to monitor cytotoxicity in HEK293 cells - 16 hour (AID 1224888); note: nearly all actives have a fitted effect of over 35% in size
Method in brief: as §2

[10] = qHTS RealTime-Glo MT Cell Viability Assay in HEK293 cells - 0 hour (AID 1224880); note: nearly all actives have a fitted effect of over 45% in size
Method in brief: as §4

[11] = qHTS RealTime-Glo MT Cell Viability Assay in HEK293 cells - 24 hour (AID 1224886); note: nearly all actives have a fitted effect of over 50% in size
Method in brief: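 Luminescence generated by NanoLuc from substrate produced by living HEK293 cells served as the viability signal. Each value reflects the reading at its stated time point during continuous 40 h compound exposure at 37 C.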

[12] = qHTS assay to identify small molecule antagonists of the androgen receptor (AR) signaling pathway using the MDA cell line in the presence of 0.5 nM R1881 - cell viability counter screen (AID 1259242); note: nearly all actives have a fitted effect of over 45% in size
Method in brief: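 Human breast carcinoma MDA-kb2 cells, cultured without CO2, receive compounds alongside 0.5 nM (final) R1881 agonist. After 16 hr at 37C, viability is taken as live-cell protease signal.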

[13] = qHTS RealTime-Glo MT Cell Viability Assay in HepG2 cells - 32 hour (AID 1224877); note: nearly all actives have a fitted effect of over 55% in size
Method in brief: as §3

[14] = qHTS assay to identify small molecule antagonists of the estrogen receptor alpha (ER-alpha) signaling pathway using the BG1 cell line in the presence of 0.1 nM 17-beta-estradiol - cell viability counter screen (AID 1259241); note: nearly all actives have a fitted effect of over 40% in size
Method in brief: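 VM7Luc4E2 cells (endogenous full-length ER-alpha, 4xERE-luciferase), cultured 5 days in charcoal-stripped serum, exposed to compounds with 0.1 nM 17beta-estradiol (final) for 22 hr at 37C. Viability read in same wells as live-cell protease fluorescence after 30 min.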

[15] = qHTS assay to identify small molecule phospholipidosis (PLD) inducers (AID 1259344; active = well fitted curve in the direction sought with a large enough effect; inconclusive = small, poorly fitted or top-dose-only effect, or another doubt; inactive = no such curve, though single readings can be large; an effect the other way counts as inactive or inconclusive)
Method in brief: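 Cells (HepG2, 900 per well) attach for 4 h, receive LipidTOX Red and compound together, incubate 24 h at 37 C, are fixed 30 min with paraformaldehyde/Hoechst, then imaged at one site per well.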

[16] = qHTS RealTime-Glo MT Cell Viability Assay in HepG2 cells - 0 hour (AID 1224889); note: nearly all actives have a fitted effect of over 50% in size
Method in brief: as §3

[17] = A CellTox Green Cytotoxicity Assay to monitor cytotoxicity in HepG2 cells - 8 hour (AID 1224890); note: nearly all actives have a fitted effect of over 45% in size
Method in brief: as §1
Potency is the fitted concentration of half-maximal effect; tags give direction and shape of the fitted curve.

Q: For `CC(c1ccc(O)cc1)c1ccc(O)cc1`, which Potency [1] is on record?
A: inconclusive: 51.5 µM [activator, partial curve, poor fit]

Q: What about the Potency [2] of the same molecule?
A: inconclusive: 51.5 µM [activator, partial curve, poor fit]

Q: What about the Potency [3] of the same molecule?
A: inconclusive: 51.5 µM [activator, single point]

Q: What about the Potency [4] of the same molecule?
A: inconclusive: 57.8 µM [activator, single point]

Q: And the Potency [5]?
A: inconclusive: 51.5 µM [activator, partial curve, poor fit]

Q: And the Potency [6]?
A: inconclusive: 51.5 µM [activator, single point]

Q: What about the Potency [7] of the same molecule?
A: inactive

Q: What about the Potency [8] of the same molecule?
A: inconclusive: 51.5 µM [cytotoxic, single point]

Q: And the Potency [9]?
A: inconclusive: 51.5 µM [activator, single point]

Q: For `CC(=O)[O-].CC(=O)[O-].[Hg+2]`, which Potency [1] is on record?
A: active: 2.75 µM

Q: What about the Potency [2] of the same molecule?
A: active: 2.19 µM

Q: And the Potency [10]?
A: inconclusive: 17.4 µM [falling, full curve, poor fit]

Q: What about the Potency [7] of the same molecule?
A: active: 2.45 µM

Q: What about the Potency [11] of the same molecule?
A: inconclusive: 0.389 µM [rising, partial curve]

Q: What about the Potency [9] of the same molecule?
A: active: 24.5 µM

Q: And the Potency [12]?
A: active: 7.7 µM

Q: Which results are given for `O=C(O)C1(c2ccc3c(c2)OC[C@H](Cc2ccc(-c4ccccc4)cc2)[C@H]3O)CCCC1`?
A: Potency [1]: inconclusive: 54.9 µM [activator, single point]; Potency [2]: inconclusive: 43.6 µM [activator, partial curve]; Potency [3]: active: 49 µM; Potency [6]: active: 19.5 µM; Potency [11]: inconclusive: 54.9 µM [cytotoxic, single point]; Potency [9]: inconclusive: 24.5 µM [activator, partial curve]

Q: Which results are given for `CC(C)(C)C(O)/C(=C\c1ccc(Cl)cc1Cl)n1cncn1` (stereo not drawn)?
A: Potency [1]: inconclusive: 59.3 µM [activator, partial curve, poor fit]; Potency [13]: inconclusive: 59.3 µM [cytotoxic, partial curve]; Potency [2]: inconclusive: 66.5 µM [activator, single point]; Potency [3]: active: 52.8 µM; Potency [4]: inconclusive: 66.5 µM [activator, single point]; Potency [7]: inconclusive: 52.8 µM [cytotoxic, partial curve]; Potency [8]: active: 47.1 µM; Potency [14]: inconclusive: 83 µM [cytotoxic, single point]; Potency [12]: inconclusive: 74 µM [cytotoxic]

Q: With `Nc1ccc(Cl)cc1` as the molecule, how does the Potency [1] read?
A: inactive

Q: And the Potency [3]?
A: inconclusive: 17.7 µM [activator, partial curve, poor fit]

Q: What about the Potency [6] of the same molecule?
A: inconclusive: 12.5 µM [activator, single point]

Q: What about the Potency [11] of the same molecule?
A: inconclusive: 22.3 µM [cytotoxic, partial curve]

Q: What about the Potency [8] of the same molecule?
A: inconclusive: 0.628 µM [cytotoxic, partial curve, poor fit]

Q: And the Potency [12]?
A: inactive

Q: What about the Potency [15] of the same molecule?
A: inconclusive: 1.12 µM [activator, partial curve, poor fit]

Q: Which Potency [1] does the source give for `C#CCN1C(=O)COc2cc(F)c(N3C(=O)C4=C(CCCC4)C3=O)cc21` here?
A: inactive

Q: For `N[C@@H](Cc1ccc(N(CCCl)CCCl)cc1)C(=O)O`, which Potency [1] is on record?
A: inconclusive: 30.1 µM [activator, single point]

Q: And the Potency [2]?
A: inconclusive: 26.4 µM [activator, single point] and inconclusive: 26.8 µM [activator, single point]

Q: What about the Potency [3] of the same molecule?
A: inconclusive: 26.4 µM [activator, single point] and inconclusive: 26.8 µM [activator, single point]

Q: What about the Potency [5] of the same molecule?
A: inconclusive: 26.4 µM [activator, single point] and inconclusive: 26.8 µM [activator, single point]

Q: What about the Potency [11] of the same molecule?
A: inconclusive: 10.5 µM [cytotoxic, partial curve]

Q: And the Potency [15]?
A: inactive

Q: With `NC(=O)CI` as the molecule, how does the Potency [1] read?
A: inconclusive: 62.2 µM [activator, single point]

Q: And the Potency [13]?
A: active: 9.86 µM

Q: And the Potency [2]?
A: inconclusive: 62.2 µM [activator, single point]

Q: And the Potency [3]?
A: inconclusive: 62.2 µM [activator, single point]

Q: What about the Potency [10] of the same molecule?
A: inactive

Q: What about the Potency [4] of the same molecule?
A: inconclusive: 62.2 µM [activator, single point]

Q: What about the Potency [5] of the same molecule?
A: inconclusive: 62.2 µM [activator, single point]

Q: And the Potency [6]?
A: inconclusive: 62.2 µM [activator, partial curve, poor fit]

Q: What about the Potency [7] of the same molecule?
A: inconclusive: 24.8 µM [cytotoxic, partial curve]

Q: And the Potency [11]?
A: inconclusive: 22.1 µM [rising, partial curve, poor fit]

Q: And the Potency [9]?
A: inconclusive: 55.4 µM [activator, single point]

Q: And the Potency [16]?
A: inconclusive: 55.4 µM [cytotoxic, partial curve, poor fit]

Q: What about the Potency [17] of the same molecule?
A: inconclusive: 62.2 µM [activator, single point]
